Source: PubChem BioAssay (NCI)
More than one record can exist for a structure, and the calls need not agree.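 Cell lines were cultured in 96-well plates, exposed to a single compound concentration, and assessed for percent growth 48 hours later.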 Some entries of the source have several records that differ or are many. The other results are left out here. How the source made its calls: active means growth percent below 10; inactive means the rest. There may be further records. This drug was run again and again over the years, at its own concentration, as given; each value is one run. Marks such as (2×) say how often a value occurs here.

System: HCC-2998 colon
Test: NCI-60 one-dose screen, 48 h (100 = growth as untreated, 0 = no growth, -100 = all killed)

## COc1cccc2c1C(=O)c1c(O)c3c(c(O)c1C2=O)C[C@@](O)(C(=O)CO)C[C@@H]3OC1CC(N)C(O)C(C)O1 (stereo partly specified)
0.25 µM, runs of 2021
  growth: inactive: 54.9 (2×), 55.7, 67.4, 60.3, 49.3, 58.2 (2×), 62.9, 63.4, 51.2, 45, 73.3, 61, 60.6, 54.2 (3×), 55.2, 50.3, 51.9, 50.4, 47.1, 49.6, 68.2, 73, 48.5, 50.6, 40.9, 41.6, 42.2, 46.1, 48.4, 51.6, 62.6, 59.3, 57.8, 59.7, 56.5, 60.2, 62.1 (2×), 38.2, 41.7, 35.4, 41.8, 26.7, 18.8, 42.7, 39.5%
0.25 µM, runs of 2022
  growth: active: -3.4%, 4.87%, -16% and inactive: 47.9, 41.6, 49.4, 21.1, 44.6, 42.3, 53.7, 43.5, 46.9, 48 (2×), 59.1, 35.7, 34.2, 49.6, 76.5, 78.3, 84.1, 75.6, 95.2, 46.5, 47.7, 53, 54.6%
25 µM, runs of 1991
  growth: active: -56, -76.1, -38.1, -72.1, -83.1, -76.7, -86.1, -76.5, -90.1, -96.5, -57, -81, -92.8, -85.6, -85.5, -89.5, -88.8, -79.7%
25 µM, runs of 1992
  growth: active: -80.4, -84.8, -83, -50.4, -56.6, -96, -62.3, -81.3, -77.5, -83.2 (2×), -75.7, -71.7, -96.2, -91.7, -72.5, -84.4, -95.9 (2×), -82.4, -59.4, -72, -83.4, -95.6, -88.4, -92, -95.1, -91, -88.6 (2×), -100 (4×), -69.1, -85.4, -94.6, -83.9 (2×), -96.3 (3×), -71.1, -78.4, -95.7, -94.2 (3×), -78.6, -96.8 (2×), -88.8, -94.8 (2×), -88.5, -89.5, -91.5, -88.2, -85.5, -81.2, -94.9, -94, -84.9 (2×), -93, -79.8, -87.7, -89.1 (3×), -97.7, -79, -92.4, -92.5, -92.2, -85.7, -92.8 (2×), -83.6, -90.6, -87.5, -73.3, -59.9, -87.3, -98.3 (2×), -80.3, -92.6, -91.2, -82.1, -72.1, -81.4, -98.5, -94.3, -93.3, -95.3, -94.7, -89.7, -98.9, -93.9, -89.8, -97.2 (3×), -94.1, -79.5, -96.9, -84.2, -54.2, -26.3, -78.7, -80.2, -92.9, -84.6, -45.7%
25 µM, runs of 1993
  growth: active: -87.5, -94.5, -91.6, -70.2, -43.1, -95.8, -93.2, -37.2, -83.6, -97.4, -64.5, -96.2, -95.2, -95.4, -89.6, -15.5, -22.3, -76.5, -82.2, -76, -100, -96.9, -23.9, -62.6, -16.7, -63, -67.8 (2×), -97.5, -70.9, -55.1, -73.8, -13.9, -81.9, -43.9, -65.1, -86.1, -42.8, -65.9, -59.9, -78.9, -49, -92.1, -60.7, -30.4, -99.2%
25 µM, runs of 1994
  growth: active: -5.8, -26.8, -80, -94.5, -34.4, -61.6, -91, -84.9, -65.6, -83.8, -18.5, -98.5, -79.5, -30.9, -79.6, 2.27, -88.7, -93.3, -81.3, -54.3, -91.3, -53.5, -68.5, -76.9, -85.4, -23, -72.5, -78.9, 2.5, -85.5, -83.4% and inactive: 108%, 28.5%
25 µM, runs of 1995
  growth: active: -24.4, -69.3, -92, -79.8 (2×), -97.5, -85.3, -87.6, -43.2, -65.7, -88.6, -83.9 (2×), -82.6, -88.7 (2×), -66.4, -69.1, -88.1, -56.3 (2×), -100 (2×), -44.2, -74.9, -62.7, -65, -90.1, -78.9, -41.6, -82, -86.3, -94.9, -73.1, -73.5, -95% and inactive: 10.7%
25 µM, runs of 1996
  growth: active: -73.2, -93.8, -97.5, -67.7, -82.6, -87.6, -69.1 (2×), -67.9, -89.1, -97, -65.4, -77.3, -88.9, -85.1, -85.6, -75.4 (2×), -93, -94.3, -78.2, -77.7, -88.3, -90.9 (2×), -98.9, -82.8, -81.7, -89.9, -97.1, -99.8, -96.2, -89, -84, -94 (2×), -95.2, -97.7, -53.5, -77.4, -89.5 (2×), -83.3, -55.5, -40.5, -86.9, -83.9, -74.2, -44.2% and inactive: 108%
25 µM, runs of 1997
  growth: active: -55 (2×), -86.4, -75.8, -29.2, -74.7, -57.2, -46.9, -62.1, -87.8 (2×), -72.2, -25.7, -16, -79.3, -95.8, -83, -59.3, -77.5, -77.7, -83.3, -36.3, -74, -66.5, -84.1, -18.6, -93.8, 6.8, -21.8, -19.9, -12.1, -33.4% and inactive: 12.2%
25 µM, runs of 1998
  growth: active: -42.3, -66.4, -36.2, -28.3, 3.35, -82, -71.5, -36.1, -46.3, -2.53, -54.9, -79.2, -33.7, 2.79, -67.1, -79.9, -77.2, -18.8, -70.7, -14.6, -77.9% and inactive: 29.6%, 11.4%
25 µM, runs of 1999
  growth: active: -100 (6×), -93.3, -66.3, -96.9, -81.7, -83.9, 2.83, -41.4, 2.77%
